# Test results from article PMC4336329 (PLoS ONE, 2015).
# Among all 310,000 compounds or so, about 2,200 (0.71%) showed an effect of 50% or more. Effects have a minus sign here. Some of the results follow.
# Molecular target: human ether-à-go-go-related gene (hERG) potassium channel (human, UniProt Q12809)
# Experiment: primary screen, population patch clamp on CHO cells stably expressing hERG
# human ether-à-go-go-related gene (hERG) potassium channel, sequence (Q12809 whole entry, looked up): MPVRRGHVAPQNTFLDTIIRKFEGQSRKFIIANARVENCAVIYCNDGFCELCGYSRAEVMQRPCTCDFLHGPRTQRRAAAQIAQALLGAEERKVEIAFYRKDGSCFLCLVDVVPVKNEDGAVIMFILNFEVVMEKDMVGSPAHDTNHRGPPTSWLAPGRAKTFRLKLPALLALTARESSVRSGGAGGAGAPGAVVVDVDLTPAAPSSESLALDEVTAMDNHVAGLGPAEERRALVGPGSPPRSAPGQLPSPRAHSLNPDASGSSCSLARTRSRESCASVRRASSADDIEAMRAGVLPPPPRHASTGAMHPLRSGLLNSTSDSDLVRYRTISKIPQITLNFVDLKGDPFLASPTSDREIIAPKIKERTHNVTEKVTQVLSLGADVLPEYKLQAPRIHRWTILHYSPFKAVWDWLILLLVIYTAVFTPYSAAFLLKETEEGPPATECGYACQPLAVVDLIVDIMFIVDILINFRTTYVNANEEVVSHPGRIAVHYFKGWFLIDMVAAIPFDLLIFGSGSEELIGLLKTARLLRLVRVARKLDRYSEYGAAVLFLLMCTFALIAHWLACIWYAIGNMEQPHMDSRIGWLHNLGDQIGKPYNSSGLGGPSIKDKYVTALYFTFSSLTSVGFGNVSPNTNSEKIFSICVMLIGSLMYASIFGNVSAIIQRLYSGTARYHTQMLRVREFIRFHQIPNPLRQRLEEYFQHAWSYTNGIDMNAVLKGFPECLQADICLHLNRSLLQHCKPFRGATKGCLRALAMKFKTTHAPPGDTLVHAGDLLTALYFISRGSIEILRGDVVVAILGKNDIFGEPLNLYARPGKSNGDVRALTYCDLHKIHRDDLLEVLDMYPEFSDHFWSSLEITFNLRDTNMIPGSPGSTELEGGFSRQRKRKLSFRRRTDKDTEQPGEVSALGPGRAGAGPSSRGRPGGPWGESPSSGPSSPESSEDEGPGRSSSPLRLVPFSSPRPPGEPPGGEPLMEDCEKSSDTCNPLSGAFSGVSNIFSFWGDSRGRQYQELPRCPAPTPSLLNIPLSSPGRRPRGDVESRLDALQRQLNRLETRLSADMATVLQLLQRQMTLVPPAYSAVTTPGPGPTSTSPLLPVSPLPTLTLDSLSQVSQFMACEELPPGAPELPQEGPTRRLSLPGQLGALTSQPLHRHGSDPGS
row,SMILES,"hERG current change (%, negative = inhibition) at 1uM [%]"
1,CS(=O)(=O)N1CCN(c2ccccc2NC(=O)CSc2ccc(Cl)cc2)CC1,6.65
2,Cc1cc(OCCCn2ccnc2)ccc1[N+](=O)[O-].O=C(O)C(=O)O,9.12
3,Cc1ccc(C2=NC3(CCCC3)N=C2SCC(=O)Nc2ccc3c(c2)OCCO3)cc1,2.62
4,CCN1CCN(C(c2ccccc2)c2nnnn2Cc2ccc3c(c2)OCO3)CC1.Cl (stereo not shown),-19.9
5,C=CCc1cccc(C=Nc2cc(Br)ccc2O)c1O,15.2
6,Cc1ccc(S(=O)(=O)N/N=C/c2cccc3c2OCCO3)cc1,-2.33
7,CSc1cccc(NC(=O)C2C3C=CC4(O3)C2C(=O)N(CCCN2CCOCC2)C4C(=O)NC2CCCCC2)c1 (stereo not shown),8.89
8,CC1CCCCC1NC(=O)CN(C)S(=O)(=O)c1cccc2cccnc12 (stereo not shown),5.74
9,COc1ccc(C(=O)Nc2ccc3ncccc3c2)cc1,19.9
10,Cc1csc(NC(=O)CSc2nc3ccccc3c(=O)[nH]2)n1,9.95
11,CCN(C(=O)COC(=O)CNC(=O)C12CC3CC(CC(C3)C1)C2)C1CCS(=O)(=O)C1 (stereo not shown),13
12,CCc1ccc2c(CN3CCN(S(=O)(=O)c4ccc5c(c4)OCCO5)CC3)cc(=O)oc2c1,8.02
13,O=C(Oc1ccc(OC(=O)N2CCOCC2)cc1)c1ccccc1,9.96
14,Cn1c(CCc2nc3ccccc3[nH]2)nnc1SCC#N,12.8
15,Cc1nn(C(=O)c2ccccc2)c2c1C(=O)CC(C)(C)C2,8.19
16,Cc1cccc(NC(=O)CN2CCN(C(=O)c3oc4c(Cl)cccc4c3C)CC2)c1C,-6.46
17,CCc1ccc(-c2nnn(Cc3nc4ccccc4s3)n2)cc1,-5.03
18,Nc1nn(S(=O)(=O)c2ccccc2)cc1-c1cccc([N+](=O)[O-])c1,5.91
19,Cc1ccc(S(=O)(=O)N2CCC[C@H]2C(=O)OCC(=O)c2ccc3c(c2)NC(=O)CO3)cc1,-10.2
20,CCCC(=O)Nc1ccc(C(=O)Nc2cc(C(F)(F)F)ccc2Cl)cc1,11.5
21,COc1ccc(CCNC(=O)C2CCN(C(=O)c3cccs3)CC2)cc1,5.64
22,C#CCNC(=O)C(C)c1ncc(C(F)(F)F)cc1Cl (stereo not shown),15.9

row,SMILES,"hERG current change (%, negative = inhibition) at 1uM [%]"
1,CSc1ccc(CN2CCC(n3nccc3NC(=O)CCCc3ccccc3)CC2)cc1,-35.7
2,O=C(O)C(=O)O.c1ccc(COc2ccc(OCCCN3CCCCC3)cc2)cc1,-57.7
3,O=C(NC1CC1)C1=C[C@@H](c2c[nH]c3ccccc23)C[C@@H](OCCCCO)O1,12.4
4,Cc1cc(C(=O)Nc2nc3ccc(Cl)cc3s2)nn1C,14.5
5,CCC(C)(C)NC(=O)Cc1ccc(OC)c(OC)c1,8.06
6,COc1cccc(C(=O)Nc2ccc(NC(=O)c3ccco3)cn2)c1,5.61
7,O=C(CSc1n[nH]c(=O)n1-c1cccnc1)N1CCOCC1,-4.15
8,Br.CCC1(C)CC(c2nc(-c3ccc(OC)cc3)cs2)CCS1 (stereo not shown),4.66
9,Cc1ccc(/C=C/C(=O)NCCc2c[nH]c3ccccc23)o1,5.1
10,COc1ccc(N2CCN(C(C)C(=O)N3CC(C)OC(C)C3)CC2)cc1.O=C(O)C(=O)O (stereo not shown),9.01
11,CCOc1ccc(CN2CCN(Cc3cc4ccccc4o3)CC2CCO)cc1 (stereo not shown),-82
12,Cc1ccc(C(=O)NCCCNCCCN(C)C)cn1.O=C(O)/C=C/C(=O)O,-1.6
13,COC(=O)c1sc2nc(SCc3ccccc3C#N)n(N)c(=O)c2c1C,4.1
14,COC(=O)Sc1nc(N2CCOCC2)c2c(c1C#N)CC(C)(C)OC2,11.2
15,Cc1cc(C(=O)Nc2ccc(Nc3ccccc3)cc2)ccc1[N+](=O)[O-],10.9
16,Cc1cc(C)c2cc(C#N)c(N3CCCN(C(=S)NCCCN(C)C)CC3)nc2c1,6.74
17,Cc1scc(C(=O)N/N=C/c2ccc(OCC(C)C)cc2)c1C,10.7
18,Cc1c(C(=O)N(CCc2ccccc2)Cc2ccccc2)cccc1[N+](=O)[O-],12.7
19,COc1ccccc1C(=O)NCCC(=O)OCC(=O)Nc1ccc(S(N)(=O)=O)cc1,8.56
20,COC(=O)C1=C(c2ccc(F)cc2OCc2ccccc2)C[C@@H]2CC[C@H]1N2C(=O)NCc1ccc2[nH]ccc2c1,16.7
21,COc1cccc(C(C(=O)NC(C)(C)C)N(C(=O)CCC(=O)Nc2cc(C)on2)c2ccc3c(c2)OCCO3)c1OC (stereo not shown),12.9
22,O=C(Nc1ccccc1F)c1ccc(-n2cncn2)nc1,5.06

row,SMILES,"hERG current change (%, negative = inhibition) at 1uM [%]"
1,Nc1c(N(CCCO)C(=O)C2CCCC2)c(=O)[nH]c(=O)n1Cc1ccccc1,11.7
2,CCN1CCN(CCCNC(=O)c2ccc3c(c2)N(Cc2ccccc2)CCS3)CC1,0.086
3,O=C(CSc1ccccn1)N1CCN(c2cccc(Cl)c2)CC1,-5.82
4,Cc1cccc(NC(=O)COC(=O)Cc2cccc(C(F)(F)F)c2)c1C,15.8
5,O=C(CSc1nnnn1-c1ccccc1)NCC1(N2CCCCC2)CCCCC1,-23.9
6,CCOC(=O)CCC(NC(=O)c1cncc(O)c1)C(=O)OCC.Cl (stereo not shown),5.71
7,COc1cc(C(=O)NCC2(N3CCCCC3)CCCCC2)ccc1OCC(=O)N1CCOCC1,4.46
8,Cc1oc2ccc(O)c(CN3CCOCC3)c2c1C(=O)c1ccc(Cl)cc1,-6.46
9,COC(=O)c1c(C)[nH]c(C(=O)OC(C)C(=O)N2CCOCC2)c1C (stereo not shown),13
10,CC(C)CNC(=O)COC(=O)c1ccc(F)cc1Cl,15.8
11,CN(C)c1ccc(C2CC(c3cccc(NS(C)(=O)=O)c3)=NN2C(=O)c2ccccc2)cc1 (stereo not shown),17.8
12,Cc1ccc(S(=O)(=O)c2c(N)n(CCN3CCOCC3)c3nc4ccccc4nc23)cc1C,-5.02
13,COc1ccccc1/C=C/C(=O)OCC(=O)Nc1ccc(Cl)cn1,21.6
14,Cc1nnc(SCC(=O)NC2CCCCCC2)n1C(C)C,0.341
15,NC(=O)[C@@H]1CC2(CC(c3cccc(NC(=O)[C@@H]4CCC(=O)N4)c3)=NO2)CN1C(=O)Cc1ccc([N+](=O)[O-])cc1 (stereo partly shown),8.18
16,BrC(/C=N/Nc1nc(N2CCOCC2)nc(N2CCOCC2)n1)=C/c1ccccc1,12
17,COCCN(CC(=O)NCc1ccccc1)C(=O)CCC(=O)Nc1ccccn1,-1.53
18,CC1(C)OC(c2ccccc2)=C/C(=C/C=C2C(=O)c3ccccc3C2=O)O1,16.6
19,CN1CCN(Cc2nc3cc(NC(=O)COc4ccc([N+](=O)[O-])cc4)ccc3n2C)CC1,14.1
20,CC(C)Cn1c(NCCO)nc2ccccc21,5.88
21,Cc1cccc(OCCCCc2c(C)n[nH]c2C)c1,10.4
22,Cl.N=c1c[n+](-c2ccc(Cl)cc2)[n-]o1,5.36

row,SMILES,"hERG current change (%, negative = inhibition) at 1uM [%]"
1,Cc1ccc(-n2nc3c(c2NC(=O)/C=C\c2ccc4c(c2)OCO4)CSC3)c(C)c1,12.1
2,O=C(Cc1c[nH]c2ccccc12)NCc1ccccc1F,18.2
3,Cc1[nH]n(C(N)=S)c(=O)c1N=Nc1ccc([N+](=O)[O-])cc1Cl,14.5
4,COc1cccc(-c2cnc(OC(C)(C)C)nc2OC(C)(C)C)c1,15.2
5,Cc1cc(NC(=O)c2ccc3c(c2)OCO3)ccc1NC(=O)c1ccco1,7.26
6,COc1ccc(N2CCN(C(=O)c3ccc4c(Cl)c5c(nc4c3)CCCC5)CC2)cc1,5.91
7,O=C(NNS(=O)(=O)c1ccc(Br)cc1)c1ccccc1-n1cccc1,-4.47
8,O=C(O)/C=C\C(=O)NNC(=O)c1cc(-c2ccccc2)n[nH]1,6.09
9,O=C(c1cccc([N+](=O)[O-])c1)N1CC2C3C=CC(C3)C2C1 (stereo not shown),22.4
10,COc1cccc(C(=O)Nc2cc(C(=O)NCc3ccc(C)cc3)ccc2N2CCC3(CC2)CC(c2ccccc2)=NO3)c1,9.12
11,CCc1cc2c(=O)c(-c3ccc(F)cc3)c(C(F)(F)F)oc2cc1OCC(=O)O,10.1
12,CC(C)OC(=O)CSc1nnc(-c2ccc(O)cc2)n1Cc1ccccc1,10.7
13,Cc1ccc(C(=O)NC2CCCC2)s1,0.734
14,O=C(Nc1cccc(Cl)c1)Nc1ccc(Br)cc1F,8.99
15,CCN(CC)Cc1c(O)ccc2occ(C(=O)c3ccccc3)c12,-57.3
16,Cc1ccnc(SCC(=O)Nc2c(C)n(C)n(-c3ccccc3)c2=O)n1,11.4
17,O=C(CN1CCc2cc3c(cc2C1)OCCCO3)Nc1ccc(S(=O)(=O)N2CCCC2)cc1,5.36
18,CC(NS(=O)(=O)c1ccc2c(c1)CC(C)N2C(=O)C1CC1)c1ccccc1 (stereo not shown),20.3
19,Nc1nc(SCC(=O)c2ccc(Br)s2)n[nH]1,16
